The results in this text go back to patent US20150038682A1.

For the test, the target named is death receptor 4 (DR4) on Ramos cells (human) (UniProt O00220). Description: cell-based or functional assay.

B1: HuYON007-THG (antibody)
heavy 1: QVTLRESGPALVKPTQTLTLTCTFSGFSLSTSGMGVSWIRQPPGKALEWLAHIYWDDDKRYNPSLKSRLTISKDTSKNQVVLTMTNMDPVDTATYYCTRRGEYGNFDYWGQGTLVTVSSASTKGPSVFPLAPSSKSTSGGTAALGCLVKDYFPEPVTVSWNSGALTSGVHTFPAVLQSSGLYSLSSVVTVPSSSLGTQTYICNVNHKPSNTKVDKKV[left out - human IgG1 Fc with changes]
heavy 2: QVTLRESGPALVKPTQTLTLTCTFSGFSLSTSGMGVSWIRQPPGKALEWLAHIYWDDDKRYNPSLKSRLTISKDTSKNQVVLTMTNMDPVDTATYYCTRRGEYGNFDYWGQGTLVTVSS[left out - human IgG1 constant region with changes]SGGGSGGGSHMKQIEDKLEEILSKLYHIENELARIKKLLGERAG
light: QTVVTQEPSFSVSPGGTVTLTCRSSSGAVTTSNFANWVQQTPGQAPRGLIGGTNNRAPGVPDRFSGSLLGNKAALTITGAQADDESDYYCALWYSNHWVFGGGTKLTVL
B1 returned a viability of Ramos cells at 6.2 ng/ml antibody of 6%.

B2: HuYON007-KH (antibody)
heavy 1: QVTLRESGPALVKPTQTLTLTCTFSGFSLSTSGMGVSWIRQPPGKALEWLAHIYWDDDKRYNPSLKSRLTISKDTSKNQVVLTMTNMDPVDTATYYCTRRGEYGNFDYWGQGTLVTVSSASTKGPSVFPLAPSSKSTSGGTAALGCLVKDYFPEPVTVSWNSGALTSGVHTFPAVLQSSGLYSLSSVVTVPSSSLGTQTYICNVNHKPSNTKVDKKV[left out - human IgG1 Fc with changes]
heavy 2: QVTLRESGPALVKPTQTLTLTCTFSGFSLSTSGMGVSWIRQPPGKALEWLAHIYWDDDKRYNPSLKSRLTISKDTSKNQVVLTMTNMDPVDTATYYCTRRGEYGNFDYWGQGTLVTVSS[left out - human IgG1 constant region with changes]
light: B1 light
The molecule B2 showed an EC50 value to induce apoptosis (Ramos cell viability, alamar Blue, overnight) of over 1 µg/mL and a viability of Ramos cells after overnight incubation with 1,000 ng/ml antibody of 100%.

B3: trimeric HuYON007-THA (antibody)
heavy 1: QVTLRESGPALVKPTQTLTLTCTFSGFSLSTSGMGVSWIRQPPGKALEWLAHIYWDDDKRYNPSLKSRLTISKDTSKNQVVLTMTNMDPVDTATYYCTRRGEYGNFDYWGQGTLVTVSSASTKGPSVFPLAPSSKSTSGGTAALGCLVKDYFPEPVTVSWNSGALTSGVHTFPAVLQSSGLYSLSSVVTVPSSSLGTQTYICNVNHKPSNTKVDKKV[left out - human IgG1 Fc with changes]
heavy 2: QVTLRESGPALVKPTQTLTLTCTFSGFSLSTSGMGVSWIRQPPGKALEWLAHIYWDDDKRYNPSLKSRLTISKDTSKNQVVLTMTNMDPVDTATYYCTRRGEYGNFDYWGQGTLVTVSS[left out - about 500 residues with a human IgG1 Fc]
light: B1 light
For B3, the viability of Ramos cells after overnight incubation with 1,000 ng/ml antibody is under 20%.
